Laboratory results from the supplement of paper PMC7266297.
The other results are listed elsewhere or left out. Single values are uncertain, as repeats are few or missing.

These compounds were tested on KB-3-1 (assay: growth inhibition relative to DMSO control (SRB); cervical cancer cells: KB-3-1 is the parent and KB-V1 overexpresses MDR1; SRB is the sulforhodamine B stain; higher = more growth inhibition). Details: 1 µM; 72 h.
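Also: Read-out is SRB optical density at 490 nm, with the control being wells given 0.5% DMSO vehicle, and compound added one day after cells were plated.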

Compound	growth inhibition
CN1CCc2nc(C(=O)N[C@@H]3C[C@@H](C(=O)N(C)C)CC[C@@H]3NC(=O)C(=O)Nc3ccc(Cl)cn3)sc2C1 [Edoxaban]	0.459%
C[C@@H](O[C@H]1OCCN(Cc2n[nH]c(=O)[nH]2)[C@H]1c1ccc(F)cc1)c1cc(C(F)(F)F)cc(C(F)(F)F)c1 [Aprepitant]	38.7%
Cc1cc2c(F)c(Oc3ncnn4cc(OC[C@@H](C)OC(=O)[C@H](C)N)c(C)c34)ccc2[nH]1	29.7%
COc1ccc2cc1Oc1ccc(cc1)C[C@H]1c3cc(c(OC)cc3CCN1C)Oc1c(OC)c(OC)cc3c1[C@H](C2)N(C)CC3 [Tetrandrine]	< 0%
N#CC1(c2ccc(NC(=O)c3cccnc3NCc3ccncc3)cc2)CCCC1 [Apatinib]	< 0%
